Experimental data reported in PubChem BioAssay AID1508624 (National Center for Advancing Translational Sciences (NCATS), 2021).
The whole screen tested about 48,000 compounds, of which about 120 (0.25%) were called active. About 4% were inconclusive and are not listed. Calls come from the whole dose curve; as a rule, active = well fitted activation curve with a large enough effect; inconclusive = small, poorly fitted or top-dose-only effect, or another doubt; inactive = no such curve, though single readings can be large or run the other way. This is one part of the list.

Experiment: Primary qHTS for Identification of Small Molecule Activators of Huntingtin-Antisense Promoter Activity; note: nearly all actives have a fitted effect of over 55% in size
Details: HEK293 HTT-AS promoter firefly luciferase reporter (activity 0% = vehicle and -100% = no light), 24 h; series mostly up to 57.5 µM; activity change, positive = activation: at the top concentration
Method in brief: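 Quantitative HTS used concentration series of up to 57.5 uM final on HEK293 luciferase reporter cells, 24 h at 37 degrees C. Readout was Dual-Glo firefly luminescence.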

Activity change, positive = activation, inactive:
Cc1c(Cl)cccc1NC(=O)N1CCOc2ccccc21 3.05%
COC(=O)c1sccc1S(=O)(=O)N1CCN(c2ccc(C)cc2C)CC1 -16.4%
Cc1ccc(OCC(=O)Nc2ccc3nc(SCC(=O)Nc4ccc(C)cc4C)sc3c2)cc1 -5.27%
CCCNC(=O)c1ccccc1NC(=O)c1nsc2ccccc12 17.2%
COc1cccc(NC(=O)CSc2ncc3c(n2)-c2ccc(Cl)cc2N(C)S3(=O)=O)c1 -13.4%
CC(C)(C)c1ccc(C(=O)NC2(C(F)(F)F)NC(=O)N(CCc3ccccc3)C2=O)cc1 (stereo not given) -22.5%
CCOc1ccccc1NC(=O)C(=O)NCCc1sc2nc(-c3ccc(OC)cc3)nn2c1C -2.18%
Cc1ccc(NC(=O)NCCOCCn2c(=O)oc3ccccc32)cc1C -10.2%
CCOc1ccc(CNC(=O)c2ccccc2NC(=O)c2nsc3ccccc23)cc1 9.54%
CCc1cccc(NC(=O)c2cc3c(s2)-c2ccccc2OC3)c1 2.85%
Cc1cc(C)c(NC(=O)C(=O)NCC(c2cccnc2)N2CCN(c3ccccc3F)CC2)c(C)c1 (stereo not given) -24.4%
O=C(CN1C(=O)c2cccc3cccc1c23)Nc1cccc(F)c1 -21.1%
CC(=O)Nc1cccc(NC(=O)CSc2nccn2C2CCCC2)c1 -1.37%
CN(Cc1ccccc1)c1ccc(-c2nc(-c3ccccc3)no2)cc1[N+](=O)[O-] 4.57%
C=Cc1ccc(Cn2c(C)c(CNCc3ccc(SC)cc3)c(C(=O)O)c2C)cc1 -20%
COC(=O)c1ccc2c(=O)n3nc(Nc4cc(OC)ccc4OC)sc3nc2c1 2.01%
Cc1ccccc1NC(=O)CSC1=Nc2ccccc2C2=NC(Cc3ccccc3)C(=O)N12 (stereo not given) 7.27%
Cc1ccc(OCc2nc(C#N)c(NCCc3ccccc3)o2)cc1 -16.6%
CCC(Sc1ncc(S(=O)(=O)c2ccc(Cl)cc2)c(=O)[nH]1)C(=O)Nc1ccc(OC)cc1 (stereo not given) -8.57%
Cc1ccc2[nH]c(=O)c3cc(C(=O)N(CCCOC(C)C)Cc4ccco4)sc3c2c1 -48.9%
COc1ccc(Cl)cc1NC(=O)CSc1nnc2[nH]c(=O)cc(-c3ccccc3)n12 14.6%
COc1ccc(NC(=O)C2CCN(C(=O)c3sc4nc[nH]c(=O)c4c3C)CC2)cc1Cl -0.244%
CN(CC(=O)Nc1ccc(Br)cc1)S(=O)(=O)c1cccc2nsnc12 -7.7%
COc1ccccc1NC(=O)CSc1nc2c(oc3ccccc32)c(=O)n1-c1ccccc1F -10.7%
O=C(O)c1ccc(OCCN2CCCCC2)cc1 0.998%
CN1C(=O)Cc2cc(S(=O)(=O)CCC(=O)N3CCN(c4ccc(Cl)cc4)CC3)ccc21 -23.5%
Cc1cc2oc(C(=O)N(Cc3ccc(N(C)C)cc3)CC3CCCO3)c(C)c2cc1Cl (stereo not given) -2.25%
COc1ccc(NC(=O)c2oc3ccccc3c2NC(=O)c2cc(C)cc(C)c2)c(OC)c1 -1.27%
CCOC(=O)C1CCN(c2nc3ccccc3nc2Cl)CC1 -5.18%
CCN(C(=O)CSc1nc2ccccc2n1Cc1ccccc1C#N)c1ccccc1 -28.4%
NC1(c2ccc(-c3nc4ccn5c(=O)[nH]nc5c4cc3-c3ccccc3)cc2)CCC1
Cc1ccc(-c2nc(S(=O)(=O)c3ccc(C)cc3)c(SCC(=O)c3ccccc3)o2)cc1 1.02%
Cc1cccc(C)c1NC(=O)Cn1c(=O)n(Cc2ccccc2Cl)c(=O)c2cccnc21 -6.59%
COc1ccc(-n2nc(C(=O)Nc3ccc(C)cn3)c3c4ccccc4n(C)c3c2=O)cc1Cl -9.16%
CCOC(=O)c1ccc(NC(=O)CSc2nnc(-c3ccncc3)n2-c2ccccc2)cc1 -9%
Cc1ccc(NC(=O)NC(C)c2c(-n3cccc3)sc(C)c2C)cc1F (stereo not given) -31.7%
COc1cc(NC(=O)C2CCN(c3nnc(C)c4c(C)n(-c5ccccc5)nc34)CC2)cc(OC)c1 -22%
Cc1ccc2c(C)c(C(=O)NCC(c3ccc(Cl)cc3)N3CCOCC3)oc2c1 (stereo not given) -20.6%
Cc1ccc(-n2c(=O)[nH]c3cc(C(=O)NCCc4ccccc4)ccc3c2=O)cc1 -21.6%
CCOC(=O)c1ccccc1NC(=O)c1cnn(-c2ccc(OC)cc2)c1C1CCN(C(=O)OC(C)(C)C)CC1 -0.493%
Cc1ccc2c(c1)c(=O)c1ccccc1n2CCCC(=O)Nc1ccc(Cl)cc1C -9.79%
CCOc1ccc(CNC(=O)c2cnc3c(C)cccn3c2=O)cc1 0.436%
CCC(c1ccc(O)cc1)C(CC)c1ccc(O)cc1 (stereo not given) -33.3%
CCCc1nn2c(=O)cc(COC(=O)C3CCCCC3)nc2s1 0.586%
Cc1ccc(NC(=O)CCCn2c(=O)c3cccn3c3ccccc32)cc1Cl 10.2%
COc1ccc(-c2nn(-c3ccc(F)cc3)c3c2cnc2ccc(F)cc23)cc1OC -18.3%
O=C1CN(C(=O)COc2ccccc2)C(c2ccc(F)cc2)c2cc(Br)ccc2N1 (stereo not given) -27%
COC(=O)c1cc2sc(Cl)cc2n1CC(=O)Nc1cc(OC)cc(OC)c1 7%
COc1ccc(OCC(=O)Nc2ccc(Cl)c(-c3nc4ncccc4o3)c2)cc1 12.5%
O=C(NCc1nc2ccccc2n1Cc1ccccc1Cl)c1ccccc1 -20%
COC(=O)c1ccccc1NC(=O)c1oc2ccc3c(c2c1C)C(=O)CC(C)(C)O3 -12.7%
COCCn1c(SCC(=O)c2c(C)[nH]c3ccccc23)nc2cc(C(=O)NC(C)C)ccc2c1=O -14.4%
CCOc1ccc(CCNC(=O)Cn2ccc3cc(S(=O)(=O)N4CCCCC4)ccc32)cc1 -31.9%
CCN(CCCNC(=O)c1cc(Nc2ccc(OC)cc2)nc2ccccc12)c1cccc(C)c1 -10%
COc1cccc(CNC(=O)c2ccc3c(c2)N(Cc2ccc(F)cc2Cl)C(=O)c2ccccc2S3)c1 -21.8%
Cc1ccccc1CN1C(=O)c2ccccc2Sc2ccc(C(=O)NCc3ccccc3)cc21 -18.4%
Cc1ccc(Cl)cc1NC(=O)Nc1cn(CC(C)C)c(=O)c2ccccc12 -7.02%
CCOc1ccccc1N(CC)C(=O)c1cc2c(=O)n(CC)c3ccccc3c2s1 -48.2%
CCOC(=O)c1noc2nc(C)n(CC(=O)Nc3ccc(Br)cc3C)c(=O)c12 -0.532%
COc1ccc(OC)c(-n2cnc3cc(C(=O)NCCc4ccccc4)ccc32)c1 8.12%
CC1(CN2CCC(n3c(=O)[nH]c4ccccc43)CC2)OCc2ccccc2-n2cccc21 (stereo not given)
Cc1cc(Nc2cccc(C(F)(F)F)c2)nc2ccc(NC(=O)c3cncc(Br)c3)cc12 -72.3%
Cc1ccc(CN(C(=O)c2ccc([N+](=O)[O-])cc2)c2ccccn2)cc1 -25.9%
NC(=O)c1noc([C@H](CCCC2CCCCC2)CC(=O)NO)n1 9.52%
Cc1ccc(OCC(=O)Nc2ccccc2C(=O)OCc2cc(=O)n3c(C)csc3n2)cc1 -30.9%
CC(C)OC(=O)c1c(NC(=O)c2cc3nc(-c4ccccc4)cc(C(F)(F)F)n3n2)sc2c1CCCC2 -18.8%
CC1=C(C(=O)Nc2ccc(C)cc2C)C(c2ccc[nH]2)n2ncnc2N1 (stereo not given) -10.2%
CSc1nnc2c(n1)OC(c1cccc(O)c1Cl)Nc1ccccc1-2 (stereo not given) -12.2%
N#Cc1cc2c(=O)n3ccccc3nc2n(-c2nnc(SCc3ccccc3F)s2)c1=O -7.84%
CC(C(=O)NCc1ccc(Cl)cc1)n1ccc2cc(S(=O)(=O)N3CCCC3)ccc21 (stereo not given) -31.2%
N#C/C(=C\c1ccccc1F)c1nc2ccccc2c(=O)[nH]1 -4.94%
Cc1cc(C)cc(NS(=O)(=O)c2ccc3[nH]cc(C(=O)NCc4ccco4)c(=O)c3c2)c1 -58.4%
O=C(/C=C/c1ccccc1)Nc1nc(-c2cccs2)ns1 16.8%
CC(=O)c1ccc(NC(=O)CN2C(=O)CCc3cc(S(=O)(=O)N4CCC(C)CC4)ccc32)cc1 -10%
COc1cccc(NC(=O)CCc2nnc3n(CC(C)C)c(=O)c4ccccc4n23)c1 6.75%
O=C(Nc1ccc(Cl)c(C(F)(F)F)c1)c1cc2nc(-c3ccc4c(c3)OCO4)cc(C(F)(F)F)n2n1 0.319%
CCC(O)c1nc2ccccc2n1CCOc1cc(C)cc(C)c1 (stereo not given) -43%
COc1ccc(NC(=O)CSc2n[nH]c(-c3ccccc3)n2)cc1Cl -21.9%
O=C(Nc1ccccc1F)c1oc2ccccc2c1NC(=O)C12CC3CC(CC(C3)C1)C2 3.98%
Cc1ccc(N(CC(=O)Nc2ccc(OC(F)(F)F)cc2)S(=O)(=O)c2c(C)noc2C)cc1 -31.9%
Cc1cccc(-c2[nH]c(C(C)(C)C)nc2-c2ccc3nccnc3c2)n1 -24.2%
Cc1[nH]c2c(C)cccc2c1CCNC(=O)c1cc2ccccc2oc1=O -4.27%
COc1cccc(N2CCN(C(=O)c3nc(-c4ccc(Cl)cc4)n4c3CCCCC4)CC2)c1 -15.6%
COCCn1c(SCC(=O)c2c[nH]c3ccccc23)nc2cc(C(=O)NCC(C)C)ccc2c1=O -13.4%
Cc1ccc(O)c(NC(=O)c2nc3nc(C)cc(C(F)F)n3n2)c1 9.26%
O=c1oc2ccc3ccccc3c2cc1-c1nnc(Nc2cc(C(F)(F)F)ccc2Cl)s1 15%
O=S(=O)(c1cccc(Cl)c1)c1nnn2c1nc(NC1CCCC1)c1sccc12 -30.5%
COC(=O)c1ccc(NC(=O)C2CCN(S(=O)(=O)c3ccc4c(c3)CCCN4C(C)=O)CC2)cc1 -36%
CCc1nnc2n1N(C(C)=O)C(c1ccc(C(C)(C)C)cc1)=C(C(C)=O)S2 -21.8%
Cc1nc(N2CCCC2)ncc1C(=O)NCc1ccccc1Cl -0.137%
CCc1ccc(CNC(=O)c2cc3c(s2)-c2ccccc2OC3)cc1 -18%
COc1cc(NC(=O)CSc2nc3nc(C)c(Cc4ccccc4)c(C)n3n2)cc(OC)c1OC 0.248%
CCOC(=O)c1cc2c(=O)n3ccccc3nc2n(CC2CCCO2)c1=NC(=O)c1cc(C)cc(C)c1 (stereo not given) -28.2%
Cc1[nH]c2ccccc2c1C1(O)C(=O)N(Cc2ccc(Cl)cc2)c2ccccc21 (stereo not given) -24.1%
CC[C@H](C)n1cc(C)c2c(C(=O)NCc3c(C)cc(C)[nH]c3=O)cc(-c3ccc(N4CCNCC4)nc3)cc21 -2.9%
